Measurements from PubChem BioAssay AID463173 (ICCB-Longwood Screening Facility, Harvard Medical School, 2010).
Screen size: about 52,000 compounds; about 1,700 (3.3%) were called active. No stated cut-off is given here; in the data, active means survival mostly below about 52% (no sharp cut-off); inactive means mostly above about 56%. Some of the results follow.

system: Wild type; experiment: S. aureus survival, RN4220 and DeltatarO strains – OD600, teichoic acid synthesis inhibitors, primary screen (AID 463173); conditions: S. aureus RN4220 wild type/DeltatarO growth, OD600, 18 h, hits give low values, screened at 18.75 µg/mL (by protocol)

Structure (SMILES) | survival
Cc1cccc(NC(=O)N2CCC(N3CCN(Cc4ccccc4)C(=O)C3=O)CC2)c1C | inactive: 65%
Cc1cc(C)cc(NC(=O)CN2CCC(NC(=O)Cc3ccccc3)CC2)c1 | inactive: 111%
Cc1sc2nc3n(c(=O)c2c1C)NC(=O)CC3 | inactive: 106%
CC(C)(C)C1CCc2onc(C(=O)Nc3sc4c(c3C#N)CCCC4)c2C1 (stereo not drawn) | inactive: 115%
CCOc1ccccc1C(=O)NC1CCNCC1 | inactive: 109%
COc1cc(N)c(Cc2nccc3cc(OC)c(OC)cc23)cc1OC | inactive: 106%
CCc1ccc(N2CC(C(=O)NC(C)CC)CC2=O)cc1 (stereo not drawn) | inactive: 100%
COc1ccccc1-c1coc2c(CN(C)C)c(O)ccc2c1=O | inactive: 112%
O=C(c1cc(-c2ccc(F)cc2)on1)N1CCN(c2ccc(F)cc2)CC1 | inactive: 85%
CCCC1N=C2c3ccccc3N=C(SCC(=O)NCCc3ccc(Cl)cc3)N2C1=O (stereo not drawn) | inactive: 92%
CCCCNS(=O)(=O)c1ccc2nc(-c3cccnc3)cc(C(=O)NC(C)C)c2c1 | inactive: 84%
Cn1nc(C(=O)N2CCN(c3ccccc3F)CC2)c2c1-c1ccccc1S(=O)(=O)C2 | inactive: 81%
O=C(CN1C(=O)c2cccc3cccc1c23)Nc1ccccc1Br | inactive: 73%
CCn1c(C(=O)Nc2ccc(C)cc2C)cc2sc(Cl)cc21 | inactive: 68%
Cc1oc2ncnc(N3CCOCC3)c2c1C(=O)NCCc1ccccc1 | inactive: 85%
CCOC(=O)c1ccccc1NC(=O)c1cc2ccc3cccnc3c2[nH]1 | inactive: 121%
CC(C)NC(=O)c1ccc2c(c1)nc1n2CCCCC1 | inactive: 77%
CCOC(=O)COc1ccc(C)cc1C(=O)c1ccn2nc(-c3ccc(Cl)cc3)cc2n1 | inactive: 105%
Cc1ccc(Nc2nc3ccc(C(=O)c4ccccc4)cc3n3c(C)nnc23)c(C)c1 | inactive: 79%
Cc1sc2ncn(CC(=O)N(C)c3ccc(C(C)C)cc3)c(=O)c2c1S(=O)(=O)N1CCC(C)CC1 | inactive: 82%

Structure (SMILES) | survival
COc1ccc(-c2noc(CC(=O)Nc3cc(OC)ccc3OC)n2)cc1 | inactive: 89%
NC(=O)c1cc2c(ccc3ccccc32)oc1=O | inactive: 113%
Cc1ccc(NS(=O)(=O)c2ccc3nc(-c4ccccc4)[nH]c3c2)c(Br)c1 | inactive: 63%
CC1CCC(NC(=O)C2(C)Cc3ccccc3C(=O)N2Cc2ccc(Cl)cc2)CC1 (stereo not drawn) | inactive: 81%
CC(=O)c1cccc(NC(=O)CN2C(=O)CC(c3ccc(C)cc3C)=Nc3ccccc32)c1 | inactive: 152%
CCCn1c(=O)c2sccc2n2c(CCCC(=O)N3CCN(c4cccc(Cl)c4)CC3)nnc12 | inactive: 86%
CCCCN(CC)CCCNC(=O)c1cn(CC)c2ccc(S(=O)(=O)N3CCc4ccccc4C3)cc2c1=O | inactive: 76%
O=C(/C=C/c1ccc(Cl)cc1)N1CCC(c2nc3ccccc3o2)CC1 | inactive: 120%
CCc1ccccc1NC(=O)CCC(=O)N1CC(C)Oc2ccc(C)cc21 (stereo not drawn) | inactive: 80%
COc1ccc(CCNCc2c(C(=O)O)c(C)n(Cc3cccc(Cl)c3)c2C)c(OC)c1OC | inactive: 88%
CCc1cc2c(cc3c(=O)n(CC(=O)N4CCN(c5cccc(C)c5C)CC4)nc(CC)n32)s1 | inactive: 74%
Cc1ccc(C)c(N2CCN(S(=O)(=O)c3ccc(C(=O)N(C)C)s3)CC2)c1 | inactive: 75%
Cc1nc2cc(N3CCN(C)CC3)c(NC(=O)C(C)(C)C)cc2c(=O)n1Cc1ccccc1 | inactive: 110%
O=C(Cn1cc(C(=O)c2ccccc2)c(=O)c2cc3c(cc21)OCCO3)Nc1ccc(F)c(F)c1 | inactive: 109%
COc1ccc(CCNC(=O)c2cc3c(=O)n(C)c4ccccc4c3s2)cc1OC | inactive: 71%
COc1ccc(NC(=O)c2c(NC(=O)COc3ccccc3)sc3c2CCCCC3)cc1 | inactive: 73%
CCOc1ccccc1CNS(=O)(=O)c1cc2c(cc1C)NC(=O)CO2 | inactive: 148%
Cc1ccccc1CNC(=O)CCC(=O)N1CCSc2ccccc21 | inactive: 80%
O=C(Cn1cc(S(=O)(=O)Cc2ccccc2Cl)c2ccccc21)NCCc1ccccc1 | inactive: 65%
COc1ccc(NC(=O)CC2C(=O)N(c3cccc(OC)c3)C(=O)N2CCC2=CCCCC2)cc1 (stereo not drawn) | inactive: 136%

Structure (SMILES) | survival
CCOc1ccc(CC(=O)NCc2ccc3c(c2)CCN3C(=O)c2ccccc2)cc1OCC | inactive: 71%
CCn1nnc2cc(C(=O)Nc3cc(C)ccc3C)ccc21 | inactive: 98%
O=C(NCc1ccc(F)cc1)C(=O)Nc1ccc2nc3n(c(=O)c2c1)CCCCC3 | inactive: 95%
COc1ccc(NC(=O)CCNS(=O)(=O)c2ccc3c(c2)CCCC(=O)N3)cc1 | inactive: 73%
Cc1ccc(-c2cc3ncc4c(n3n2)-c2cc(Cl)ccc2OC4)cc1 | inactive: 97%
Cc1cccc(CN2CCN(CC(=O)NCCc3ccc(Cl)cc3)C2=O)c1 | inactive: 84%
CCCCNC(=O)c1c[nH]c2ccc(C)cc2c1=O | inactive: 97%
Cc1cc(C)c(NC(=O)c2oc3c(c2C)-c2[nH]ncc2CC3)c(C)c1 | inactive: 81%
CCCCOc1ccc(C(=O)NCc2cn3cccc(C)c3n2)cc1 | inactive: 93%
Cc1ccc(C(=O)Nc2ccc(C(=O)O)cc2)cc1S(=O)(=O)N1CCC(C)CC1 | inactive: 91%
Cc1cccc(-c2nc3scc(CCNS(=O)(=O)c4ccc(F)c(C(F)(F)F)c4)n3n2)c1 | inactive: 51%
CCOC(=O)c1ccccc1NC(=O)CN1C(=O)CC(c2ccccc2)Sc2ccccc21 (stereo not drawn) | inactive: 91%
Fc1ccccc1N1CCN(c2ncnc3onc(-c4ccc(Cl)cc4)c23)CC1 | inactive: 77%
COc1ccc(Cl)cc1NC(=O)CSc1nc2c(oc3ccccc32)c(=O)n1Cc1ccco1 | inactive: 77%
CCN(CC)c1nn2c(=O)c(C(=O)NCCc3ccccc3C)cnc2s1 | inactive: 127%
O=C(NCc1ccc(Cl)cc1)C1CCC(CNS(=O)(=O)c2ccccc2)CC1 (stereo not drawn) | inactive: 89%
Cc1ccc(NC(=O)/C=C/c2ccco2)cc1F | inactive: 78%
CCOc1ccc(N(C)C(=O)C2CCN(S(=O)(=O)c3c(C)noc3/C=C/c3ccc(C)cc3)CC2)cc1 | inactive: 153%
